The whole screen tested about 270,000 compounds, of which about 5,800 (2.1%) were called active. Inconclusive means that the source gave no clear call. Such entries were picked first, then a sample of the others. The call rests on the fitted dose curve; in most records, active means well fitted inhibition curve with a large enough effect; inconclusive means small, poorly fitted or top-dose-only effect; inactive means flat fitted curve, though single readings scatter. Potencies beside an inconclusive call are fits to weak or partial responses and may not hold up.
The compounds below were run against Microtubule-associated protein tau (Homo sapiens) (UniProt P10636) (assay: qHTS for Inhibitors of Tau Fibril Formation, Thioflavin T Binding). Conditions: recombinant tau K18 P301L (four-repeat tau fragment), heparin-induced fibrillization, ThT fluorescence; series mostly up to 57.4 µM.
Sequence of UniProt P10636 (P10636 whole entry, looked up, the tested form may be a part): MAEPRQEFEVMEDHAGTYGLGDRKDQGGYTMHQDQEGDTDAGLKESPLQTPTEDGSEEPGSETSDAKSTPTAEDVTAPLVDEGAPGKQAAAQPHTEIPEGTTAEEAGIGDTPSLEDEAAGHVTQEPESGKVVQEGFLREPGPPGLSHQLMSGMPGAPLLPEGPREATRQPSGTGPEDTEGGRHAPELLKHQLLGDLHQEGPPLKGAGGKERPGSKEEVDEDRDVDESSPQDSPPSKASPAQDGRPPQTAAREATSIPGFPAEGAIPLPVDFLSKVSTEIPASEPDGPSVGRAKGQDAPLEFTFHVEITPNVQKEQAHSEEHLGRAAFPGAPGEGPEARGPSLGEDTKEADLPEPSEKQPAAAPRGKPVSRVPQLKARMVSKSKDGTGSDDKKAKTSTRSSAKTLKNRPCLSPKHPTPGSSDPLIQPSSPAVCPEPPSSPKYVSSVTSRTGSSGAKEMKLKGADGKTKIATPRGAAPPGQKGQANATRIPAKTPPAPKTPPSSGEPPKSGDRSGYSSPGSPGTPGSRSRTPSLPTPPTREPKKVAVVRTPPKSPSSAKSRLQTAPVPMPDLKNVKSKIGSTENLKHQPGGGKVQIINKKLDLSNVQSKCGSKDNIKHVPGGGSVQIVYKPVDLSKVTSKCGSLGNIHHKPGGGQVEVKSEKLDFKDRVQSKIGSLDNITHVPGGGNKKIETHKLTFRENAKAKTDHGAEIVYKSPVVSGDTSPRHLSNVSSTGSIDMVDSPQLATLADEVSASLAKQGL
Outline: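 K18 P301L tau (15 uM + 0.24 uM Alexa 594-tagged), heparin 20 uM, NaOAc pH 7, 6 h 37 C; ThT 30 uM, 1 h RT, ex 450/em 510 nm.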
Further: nearly all actives have a fitted effect of over 55% in size.
Potency means the concentration at half of the fitted maximal effect; tags describe the fitted curve by direction and shape.

SMILES | Potency
O=C(CSc1nnc(CCCOc2ccc(Cl)cc2Cl)o1)Nc1ccc(C(=O)O)cc1 | inconclusive: 14.1 µM [inhibitor, partial curve]
Cc1ccc2c(c1)-c1onc(C(=O)N3CCN(c4ccc(Cl)cc4)CC3)c1CO2 | inconclusive: 2.24 µM [inhibitor, full curve]
CSc1cccc(NC(=O)CCCOc2ccc(Cl)cc2Cl)c1 | inconclusive: 2.82 µM [inhibitor, full curve, poor fit]
O=S(=O)(c1ccc(Cl)cc1)c1snnc1-c1ccccc1 | inconclusive: 35.5 µM [inhibitor, partial curve]
CCOC(=O)N1CCN(Cc2nc3cc(NC(=O)c4ccccc4[N+](=O)[O-])ccc3n2C(C)C)CC1 | inactive
N#Cc1ccc(OCC(=O)n2cc(C(=O)c3cc(Cl)cc(Cl)c3O)cn2)cc1 | inconclusive: 35.5 µM [inhibitor, single point]
O=C(Nc1nc(-c2cccnc2)cs1)c1ccc([N+](=O)[O-])cc1 | inconclusive: 5.01 µM [inhibitor, partial curve]
COc1ccc(-c2nnc(SCc3nnc(-c4ccccc4)o3)n2-c2ccccc2)cc1 | inactive
COc1ccc(NC(=O)/C(Cl)=C(/Cl)S(=O)Cc2ccc(C)cc2)cn1 (stereo not given) | inconclusive: 3.16 µM [inhibitor, full curve]
c1coc(CNc2nc3sc4c(c3c3ncnn23)CCCC4)c1 | inconclusive: 14.1 µM [inhibitor, partial curve]
CCCN(CCC)CC(O)Cn1cc(/C=C/C(=O)c2ccc(C)cc2)c2ccccc21 (stereo not given) | active: 17.8 µM
CCOC(=O)c1c(C)oc(/N=C/c2ccccc2O)c1C#N | inactive
Cc1cccc(/C=N/NC(=O)Cn2nccc2C)n1 | inactive
Cc1[nH]c2ccccc2c1/C=N/NC(=O)Cc1cccs1 | inconclusive: 3.55 µM [inhibitor, partial curve, poor fit]
C=Cc1ccc(Cn2c(C(=O)O)c(CNC3CCCC3)c3ccc(C)cc32)cc1 | inactive
CCCCCOc1ccc(C(=O)NCC2(c3ccccc3)CCOCC2)cc1 | inconclusive: 17.8 µM [inhibitor, partial curve]
CC(C)c1ccc(C(=O)NCCCN2CCN(CCCNC(=O)c3ccc(C(C)C)cc3)CC2)cc1 | inactive
COc1cccc(NC(=O)CN2CCN(c3nc(-c4cccc(OC)c4)cs3)CC2)c1 | inconclusive: 15.8 µM [inhibitor, partial curve]
COc1ccc(O)c(C(c2c(C)[nH][nH]c2=O)c2c(C)[nH][nH]c2=O)c1 | inconclusive: 31.6 µM [inhibitor, single point]
CC(=O)N1CCN=C1SCc1c(F)cccc1Cl | inconclusive: 25.1 µM [inhibitor, partial curve]
CCOC(=O)c1nnn(-c2ccccc2C#N)c1C | inactive
COc1ccc(OC)c(CNC(=O)c2c3c(nc4ccccc24)C(=O)N(C2CCCCC2)C3)c1 | inactive
COc1ccc2nc(C)cc(SCC(=O)N/N=C/c3cccc4ccccc34)c2c1 | inconclusive: 15.8 µM [inhibitor, partial curve]
COC(=O)C1CCN(c2ccc([N+](=O)[O-])cc2)CC1 | inconclusive: 12.6 µM [inhibitor, partial curve]

SMILES | Potency
NC(=O)c1sc2nc3c(cc2c1N)CCC3 | inconclusive: 14.1 µM [inhibitor, partial curve, poor fit]
CN1CCN(/N=C/c2ccc(-c3ccc([N+](=O)[O-])cc3)o2)CC1 | inconclusive: 14.1 µM [inhibitor, partial curve]
C=CCNC(=O)/C(C#N)=C/c1ccc(C(=O)O)cc1 | inactive
Cc1cccc(NC(=O)CSc2nnc3[nH]c(=O)cc(-c4ccccc4)n23)c1C | inconclusive: 14.1 µM [inhibitor, partial curve]
COc1ccc2cc(C(c3nnnn3C(C)(C)C)N3CCc4ccccc4C3)c(=O)[nH]c2c1 (stereo not given) | inconclusive: 11.2 µM [inhibitor, partial curve]
CC(C)COn1c(=S)[nH]c2ccccc2c1=O | inactive
CCC1=C(c2ccc(C)cc2)S(=O)(=O)N=C1N1CCC(C(=O)Nc2ccccc2F)CC1 | inactive
Cc1ccc(Cn2c(C(=O)NCc3ccccc3Cl)cc3sccc32)cc1 | inactive
O=C(OCc1cc(=O)n2nc(-c3cccs3)sc2n1)c1ccc(Cl)cc1 | inconclusive: 2.51 µM [inhibitor, full curve]
CCC(C)(C)n1nnnc1CN1CCN(c2nc3ccc(C)cc3cc2C#N)CC1 | inconclusive: 10 µM [inhibitor, partial curve]
O=C(/C=C/c1ccccc1[N+](=O)[O-])c1ccccc1Br | inconclusive: 28.2 µM [inhibitor, single point]
O=CN/C=C/c1cc(O)ccc1O | active: 25.1 µM
O=C(NCCCN1CCCC1)c1ccc(Cn2c(=S)[nH]c3ccc(Br)cc3c2=O)cc1 | inconclusive: 31.6 µM [inhibitor, partial curve]
Cc1nc(-c2nnc(SCC(=O)Nc3ccc(Cl)cc3)n2C)cs1 | inconclusive: 7.08 µM [inhibitor, single point]
O=C(CN1C(=O)COc2ccc(Cl)cc21)Nc1ccc(F)cc1 | inactive
CCN(C(=O)c1nn(-c2ccc(OC)c(Cl)c2)c(=O)c2c1c1ccccc1n2C)c1cccc(C(F)(F)F)c1 | inactive
CC(C)Cn1c(/C=N/Nc2nc3ccccc3[nH]2)nc2ccccc21 | inconclusive: 15.8 µM [inhibitor, partial curve]
Cc1[nH]nc(SCC(=O)NC2CCCC2)c1[N+](=O)[O-] | inconclusive: 31.6 µM [inhibitor, partial curve]
Cc1cc(C)c(C(=O)CN2C(=O)NC3(CCCCCC3)C2=O)cc1C | inconclusive: 44.7 µM [inhibitor, single point]
Cc1cc(C)nc(/N=C(\NC(=O)C(C)(C)C)Nc2ccc(F)cc2)n1 | inactive
Cc1cc(N/N=C/c2ccc(F)cc2)nc(-n2nc(C)cc2C)n1 | inactive
COc1ccccc1NC(=S)N1CCN(c2nc(-c3ccccc3)cs2)CC1 | inconclusive: 3.16 µM [inhibitor, partial curve, poor fit]
CSC1=N/C(=C\c2ccccc2F)C(=O)S1 | inactive
CCN(CC)CCNC(=O)C1CCN(c2nn3cc(-c4ccc(F)cc4)nc3s2)CC1 | inactive

SMILES | Potency
Cc1[nH][nH]c(=O)c1C(c1c(C)[nH][nH]c1=O)c1cn(Cc2ccc(F)cc2)c2ccccc12 | active: 8.91 µM
Cc1ccc2cc(C#N)c(N3CCCN(S(=O)(=O)c4ccccc4)CC3)nc2c1 | inconclusive: 31.6 µM [inhibitor, single point]
Oc1ccc(-c2n[nH]c(=S)n2-c2ccc3c(c2)OCCO3)c(O)c1 | inconclusive: 35.5 µM [inhibitor, single point]
Cc1ccc(-c2cn3c(n2)SCC3)cc1 | inconclusive: 22.4 µM [inhibitor, partial curve]
N#Cc1sc2nc(C3CC3)cc(-c3ccc(Cl)cc3)c2c1N | inconclusive: 15.8 µM [inhibitor, partial curve]
CC(C)(C)c1cc[n+](/C(C(=S)Nc2ccccc2F)=C(/[O-])c2ccc3c(c2)OCCO3)cc1 | inconclusive: 35.5 µM [inhibitor, partial curve]
Cc1ccc(/C=C/C(=O)NCc2ccc(S(N)(=O)=O)cc2)o1 | active: 25.1 µM
COC(=O)c1cc2sc(C)cc2n1Cc1cccc(OC)c1 | inconclusive: 44.7 µM [inhibitor, single point]
COc1cc(/C=C/C(=O)Nc2ccc3nc4n(c(=O)c3c2)CCCC4)cc(OC)c1OC | inconclusive: 1.41 µM [inhibitor, full curve]
Nc1n[nH]c(C2CCCCC2)n1 | inactive
CNC(=O)/C(C#N)=C/c1ccc(-c2nc3ccccc3s2)o1 | inconclusive: 0.562 µM [inhibitor, full curve, poor fit]
COc1ccc(CN=Cc2c(O)[nH]c3ccccc23)cc1 | inconclusive: 15.8 µM [inhibitor, partial curve]
Fc1ccc([C@@H]2CCNC[C@H]2COc2ccc3c(c2)OCO3)cc1 | inactive
CCOc1ccc(-c2nc(N)ncc2-c2ccc(OC)cc2)c(O)c1 | inconclusive: 39.8 µM [inhibitor, single point]
COc1cc(NC(=O)c2cccc3c2C(=O)N(C2CCCCC2)C3)cc(OC)c1OC | inconclusive: 12.6 µM [inhibitor, partial curve, poor fit]
CC(=O)c1ccc(N2CCN(C(=O)Cc3cccs3)CC2)cc1 | inconclusive: 15.8 µM [inhibitor, partial curve]
C(=N\n1cnnc1)/c1ccc(-c2ccccc2)cc1 | inconclusive: 17.8 µM [activator, partial curve]
Cc1cccc(NC(=O)c2ccc(-n3cnc4cccnc43)cc2)c1C | inactive
COc1cccc(/C=C2\SC(=S)N(C(Cc3ccccc3)C(=O)O)C2=O)c1 (stereo not given) | inconclusive: 12.6 µM [inhibitor, partial curve, poor fit]
CCN(CC)c1ccc(NC(=O)c2nc3nc(C)cc(C(F)F)n3n2)cc1 | inconclusive: 22.4 µM [inhibitor, partial curve]
COCCn1nnnc1C(c1cccc(C(F)(F)F)c1)N1CCN(Cc2ccccc2)CC1 (stereo not given) | inactive
CN(C)CCCNc1cc(C(C)(C)C)nc2c(-c3ccc(Cl)cc3)cnn12 | inconclusive: 39.8 µM [inhibitor, single point]

Reference: PubChem BioAssay AID1460 (National Center for Advancing Translational Sciences (NCATS), 2008)
